PubChem BioAssay AID651820 (National Center for Advancing Translational Sciences (NCATS), 2012)
Screen size: about 340,000 compounds; about 12,000 (3.5%) were called active. Inconclusive results, whose numbers are uncertain, are shown with a selection of clear calls. Calls come from the whole dose curve; as a rule, active = well fitted inhibition curve with a large enough effect; inconclusive = small, poorly fitted or top-dose-only effect, or another doubt; inactive = no such curve, though single readings can be large or run the other way. Potencies of inconclusive entries are left out as doubtful fits. Where a structure was tested more than once in an assay, its records may differ in their call.
Potency is the fitted concentration of half-maximal effect; tags give direction and shape of the fitted curve.

Assay: qHTS Assay for Inhibitors of Hepatitis C Virus (HCV)
Settings: Huh7.5.1 HCVcc-Cre (HCVcc is cell-culture hepatitis C virus) infection, luciferase reporter, 44 h; series mostly up to 41.8 µM
Summary of the method: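 Reporter virus HCVcc-Cre (~0.5 moi) infects cells exposed to compound; seeding density 1,000 cells/well with 4 h settling beforehand. Luminescence, 15 sec read, taken 44 h post-infection following a 15 min RT substrate incubation.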
With `COc1ccc(-c2cc(C(=O)Nc3c(C)nn(Cc4ccc(Cl)cc4)c3C)no2)cc1` the Potency was inconclusive [inhibitor, single point]. With `CCCCNc1c(-c2cccc(-c3ccc(OC)cc3)c2)nc2cc(C)ccn12` the Potency was active: 11.2 µM. For `Cc1ccccc1NC(=O)c1nc(S(C)(=O)=O)ncc1Cl`, the Potency was inconclusive [inhibitor, single point]. For `Oc1ccccc1C=NNc1nc2ccccc2s1`, the Potency was inconclusive [inhibitor, single point]. In the case of `CN(C(=O)c1ccc(NC(=O)Cc2cccc(NC(=O)C3CCCN(C(=O)C4CC4)C3)c2)cc1)C1CC1` (stereo not given), the Potency was “inactive”. For `NC(=S)N/N=C/c1ccc(-c2cccc([N+](=O)[O-])c2)o1`, the Potency was inconclusive [inhibitor, single point]. In the case of `COc1ccc(CN2CC(C(=O)NCCN3CCN(c4ccccc4F)CC3)CC2=O)cc1` (stereo not given), the Potency was inconclusive [inhibitor, single point]. With `CCCNCC(O)Cn1c2ccccc2n2c(=O)cc(C)c(C#N)c12` (stereo not given) the Potency was inconclusive [inhibitor, partial curve]. For `COc1cc(NC(=O)c2cccs2)cc(OC)c1`, the Potency was “inactive”. With `CCCCNC(=S)N=Nc1c(O)[nH]c2ccccc12` the Potency was “inactive”. With `COC(=O)Cc1ccc(NC(=S)N2CCN(c3ccc(OC)cc3)CC2)cc1` the Potency was “inactive”. With `CCOC(=O)N1CCN(CCC(=O)Nc2ccc(Br)cc2)CC1` the Potency was inconclusive [inhibitor, single point]. In the case of `Fc1ccc(NC(=S)Nc2ccc(Br)cc2)cc1`, the Potency was inconclusive [inhibitor, single point]. With `Cc1ccc(/C(N)=N/OC(=O)c2ccc3ccccc3c2)cc1` the Potency was inconclusive [inhibitor, single point]. With `COc1cccc(NC(=O)COC(=O)Cn2c(C)csc2=O)c1` the Potency was “inactive”. With `COc1cccc(NC(=O)C2CCC(CNS(=O)(=O)c3ccc4c(c3)CC(C)N4C(C)=O)CC2)c1` (stereo not given) the Potency was inconclusive [inhibitor, partial curve]. In the case of `Cc1cc(C)n2nc(CNS(=O)(=O)c3c(F)c(F)c(F)c(F)c3F)nc2n1`, the Potency was inconclusive [inhibitor, single point]. For `COC(=O)c1c(C)[nH]c(C(=O)CN2C(=O)NC3(CCOc4ccccc43)C2=O)c1C` (stereo not given), the Potency was inconclusive [inhibitor, partial curve]. In the case of `CC(=O)c1ccc(OCC(=O)N2CCN(S(=O)(=O)c3ccc(Br)s3)CC2)cc1`, the Potency was inconclusive [inhibitor, single point]. For `C=CCn1c(=O)c2ccccc2n2c(SCC(=O)Nc3sc(C(=O)N(CC)CC)c(C)c3C(=O)OCC)nnc12`, the Potency was active: 6.31 µM. With `Cc1cccc(/C(N)=N/OC(=O)N2CCOCC2)c1` the Potency was inconclusive [inhibitor, partial curve, poor fit]. With `COc1ccc(-c2noc(Cc3ccc(Cl)cc3)n2)cc1OC` the Potency was inconclusive [inhibitor, partial curve]. With `CCOC(=O)CNC(=O)CSc1nnc(NC(=O)c2ccc(C)cc2)s1` the Potency was “inactive”. In the case of `Cc1cc(CN(C)Cc2cn(C)nc2-c2ccc(Oc3ccccc3)cc2)on1`, the Potency was inconclusive [inhibitor, single point]. With `CCc1nnc(NS(=O)(=O)c2ccc(NC(=O)c3ccc(Cl)cc3)cc2)s1` the Potency was “inactive”. For `CS(=O)(=O)c1ccc2nc(NC(=O)c3cccc(Cl)c3)sc2c1`, the Potency was inconclusive [inhibitor, partial curve]. In the case of `CC1CCc2nc(NC(=O)C3CC3)sc2C1` (stereo not given), the Potency was “inactive”. For `COc1ccc(NC(=O)c2cc(S(=O)(=O)N3CCS(=O)(=O)CC3)ccc2Cl)cc1`, the Potency was inconclusive [inhibitor, single point]. With `COc1ccc(Cn2c(=O)[nH]c3cc(C(=O)NCCCN4CCCCC4)ccc3c2=O)cc1` the Potency was inconclusive [inhibitor, full curve]. With `O=C(Nc1ccccc1N1CCN(c2ccc(F)cc2)CC1)c1ccccc1` the Potency was “inactive”. With `N/C(=N\OC(=O)CCCc1ccccc1)c1ccccn1` the Potency was “inactive”. For `CC(=O)Nc1ccc(C2=NNC(=Nc3cccc(S(=O)(=O)N(C)C)c3)SC2)cc1`, the Potency was inconclusive [inhibitor, single point]. In the case of `Cc1cc(C)cc(NC(=S)NCc2cccn2C)c1`, the Potency was inconclusive [inhibitor, single point]. For `CCCNC(=O)N1CCC(n2nccc2NC(=O)CCOc2ccccc2)CC1`, the Potency was “inactive”. In the case of `COc1ccccc1-c1nn2c(C3COc4ccccc4O3)nnc2s1` (stereo not given), the Potency was “inactive”. In the case of `Fc1cccc(Cc2noc(CN3CCCN(C4Cc5ccccc5C4)CC3)n2)c1`, the Potency was “inactive”. For `CC(C)(C)c1ccc(C(=O)Nc2nnc(Cc3c[nH]c4ccccc34)s2)cc1`, the Potency was inconclusive [inhibitor, single point]. With `COc1cc(-c2cc(OC)c3c(C)oc(C)c3c(=O)c2)ccc1O` the Potency was inconclusive [inhibitor, partial curve]. In the case of `O=C(CNCc1ccccc1Cl)Nc1cc(S(=O)(=O)N2CCOCC2)ccc1Cl`, the Potency was inconclusive [inhibitor, single point]. In the case of `CN(CC(=O)Nc1ccccc1C(F)(F)F)C(=O)c1cc(-c2cccs2)nn1-c1ccccc1`, the Potency was inconclusive [inhibitor, partial curve]. With `Cc1noc(C)c1C(=O)Nc1ccc(F)cc1` the Potency was “inactive”. In the case of `COc1ccc([C@@H]2[C@@H]3C(=O)N(C(C)(C)C)C(=O)[C@@H]3[C@]3(Cc4ccccc4)C(=O)N(c4cccc(Br)c4)C(=O)N23)cc1`, the Potency was “inactive”. For `Cc1ccc(C(=O)Nc2sc(C)c(C)c2C(=O)c2ccccc2)cc1`, the Potency was inconclusive [inhibitor, partial curve, poor fit]. With `CCCCn1cnc2sc(-c3ccccc3)cc2c1=O` the Potency was inconclusive [inhibitor, single point]. With `O=C(CC(c1ccco1)S(=O)(=O)c1ccccc1)c1ccccc1` (stereo not given) the Potency was “inactive”. In the case of `COc1ccc(C2c3cc(OC)c(OC)cc3CCN2C(=O)c2ccccc2Br)cc1OC` (stereo not given), the Potency was inconclusive [inhibitor, single point]. For `COc1cc(C(=O)NC(=S)Nc2ccccc2[N+](=O)[O-])cc(OC)c1OC`, the Potency was inconclusive [inhibitor, partial curve, poor fit]. For `COc1ccc(N(C)S(=O)(=O)c2cccc(C(=O)NCC3CCCCC3)c2)cc1`, the Potency was inconclusive [inhibitor, single point]. For `O=C(CN1CCOCC1)Nc1ncc(Cc2cccc3ccccc23)s1`, the Potency was inconclusive [inhibitor, single point]. For `CC1CCCCC1NC(=O)c1ccc(CSc2nc3ccncc3[nH]2)cc1` (stereo not given), the Potency was inconclusive [inhibitor, single point]. In the case of `CCOC(=O)C1(CCOc2ccccc2)CCN(Cc2ccc(C#CCCO)cc2)CC1`, the Potency was inconclusive [inhibitor, single point]. With `CCCCC1(C)NC(=O)N(CC(=O)Nc2cc(S(=O)(=O)N3CCOCC3)ccc2Cl)C1=O` (stereo not given) the Potency was inconclusive [inhibitor, partial curve]. For `COCCCNc1nc2c(-c3cccc(C)c3)nnn2c2ccc(Cl)cc12`, the Potency was inconclusive [inhibitor, partial curve]. For `O=C(c1ccccc1)C(CN1CCCCC1)c1ccccc1` (stereo not given), the Potency was inconclusive [inhibitor, single point]. In the case of `CNC(=O)OCCSCCS(=O)(=O)c1ccc(Cl)cc1`, the Potency was “inactive”. For `Cc1cccc(CC(=O)Nc2sc(C(C)C)cc2C(=O)N2CCOCC2)c1`, the Potency was inconclusive [inhibitor, single point]. For `CN1C(=O)N(C)C(=O)C2(Cc3cc(NC(=O)c4ccc(F)cc4)ccc3N3CCCC32)C1=O` (stereo not given), the Potency was inconclusive [inhibitor, single point]. With `Cc1cc(NC(=O)C2CC2)n(-c2nc3ccccc3s2)n1` the Potency was inconclusive [inhibitor, partial curve]. With `COc1ccc(NC(=O)Nc2cccc(F)c2)c(OC)c1` the Potency was “inactive”. In the case of `Cc1ccc(/C(=C\CN2CCCC2)c2ccccn2)cc1`, the Potency was “inactive”. In the case of `CCOc1ccccc1NC(=O)C(OC(=O)c1ccc(O)cc1)c1ccccc1` (stereo not given), the Potency was inconclusive [inhibitor, single point]. For `COc1cccc(O)c1CN1CCC(C(=O)Nc2ccc(-c3cccc(C)c3)cc2)CC1`, the Potency was active: 1 µM. For `CCN(CC)C(=O)C1CCN(S(=O)(=O)c2c(C)noc2/C=C/c2cccc(C)c2)CC1`, the Potency was inconclusive [inhibitor, partial curve]. With `CCOC(=O)N1CCC(NC(=O)c2ccc3c(c2)N=C(CC)c2ccccc2S3)CC1` the Potency was active: 10 µM. For `O=C(O)c1cccc(NC(=O)c2ccccc2)c1`, the Potency was “inactive”. For `COCC(=O)Nc1c(C(=O)Nc2ccc3c(c2)OCCO3)oc2ccccc12`, the Potency was inconclusive [inhibitor, single point]. For `COc1cc(OC)cc(C(=O)N[C@H](C(=O)OCC(=O)Nc2sccc2C#N)C(C)C)c1`, the Potency was inconclusive [inhibitor, single point]. In the case of `CN1[C@@H]2CC[C@H]1CC(OC1c3ccccc3CCc3ccccc31)C2` (stereo not given in full), the Potency was active: 1.26 µM. With `CCc1ccc(CN(C)CC(O)COc2cccc3ccccc23)cc1` (stereo not given) the Potency was inconclusive [inhibitor, partial curve]. For `Cc1ccc(-c2nnc(SCC(=O)Nc3cccnc3Cl)n2N)cc1`, the Potency was inconclusive [inhibitor, single point].
